The supplement of paper PMC7826260
This is one part of the list. One pool of 16,384 single-stranded DNAs met each Rep nickase domain in vitro (3 µM enzyme, 1 h, 37 °C); shown is the middle of each 90-letter strand. The score is log2 (uncut reads / reads without enzyme); the lower, the more was cut; hits are not called. Shares of all reads are compared; uncut strands gain when others are lost, and binding without cutting may add a little.

Legend:
Assay in all cases: uncleaved DNA left, log2 of reads against the no-enzyme library (log2 ratio); higher = less cleavage (more negative = more Rep cleavage of the k-mer); sequences stand for … in CTCGTCCG…ACCGGAGA
[1] = test system: T1, Rep nickase domain of Muscovy duck circovirus
T1 sequence (Rep 1-111, printed without the tag): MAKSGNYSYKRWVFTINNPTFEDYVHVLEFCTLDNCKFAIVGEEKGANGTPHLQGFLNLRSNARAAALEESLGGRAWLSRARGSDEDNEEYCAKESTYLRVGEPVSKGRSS
Protocol: (§1)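 A pool of 90-nt single-stranded DNAs with seven random bases just before the constant AC of the nick site (name = the seven bases) was cut by 3 µM recombinant His6-SUMO-tagged Rep nickase domain (300 nM DNA, 50 mM HEPES pH 8.0, 50 mM NaCl, 1 mM MnCl2, 1 h, 37 °C, three replicates). Uncut DNA was amplified and sequenced.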

[2] = test system: T2, Rep nickase domain of banana bunchy top virus
T2 sequence (Rep 1-94, printed without the tag): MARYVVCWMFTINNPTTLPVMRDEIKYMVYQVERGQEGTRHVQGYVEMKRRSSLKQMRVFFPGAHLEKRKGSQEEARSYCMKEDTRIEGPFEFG
Protocol: as §1

[3] = test system: T3, Rep nickase domain of cabbage leaf curl virus
T3 sequence (Rep 1-116, printed without the tag): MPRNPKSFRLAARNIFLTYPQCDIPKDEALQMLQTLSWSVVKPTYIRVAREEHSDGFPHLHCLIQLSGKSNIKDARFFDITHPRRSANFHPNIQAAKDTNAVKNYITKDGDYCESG
Protocol: as §1

[4] = test system: T4, Rep nickase domain of chickpea chlorotic dwarf virus
T4 sequence (Rep 1-124, printed without the tag): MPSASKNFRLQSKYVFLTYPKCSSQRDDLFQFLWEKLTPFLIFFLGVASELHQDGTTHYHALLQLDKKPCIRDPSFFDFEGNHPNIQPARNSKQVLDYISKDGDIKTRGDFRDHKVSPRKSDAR
Protocol: as §1

[5] = test system: T5, Rep nickase domain of faba bean necrotic yellows virus
T5 sequence (Rep 1-98, printed without the tag): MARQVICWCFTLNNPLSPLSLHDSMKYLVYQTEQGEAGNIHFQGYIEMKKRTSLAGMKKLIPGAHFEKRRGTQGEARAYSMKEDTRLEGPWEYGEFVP
Protocol: as §1

[6] = test system: T6, Rep nickase domain of maize striate mosaic virus
T6 sequence (Rep 1-117, printed without the tag): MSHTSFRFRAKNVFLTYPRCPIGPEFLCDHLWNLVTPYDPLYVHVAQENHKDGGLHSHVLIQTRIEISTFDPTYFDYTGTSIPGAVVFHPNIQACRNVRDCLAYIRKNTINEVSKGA
Protocol: as §1

[7] = test system: T7, Rep nickase domain of porcine circovirus 2
T7 sequence (Rep 2-116, printed without the tag): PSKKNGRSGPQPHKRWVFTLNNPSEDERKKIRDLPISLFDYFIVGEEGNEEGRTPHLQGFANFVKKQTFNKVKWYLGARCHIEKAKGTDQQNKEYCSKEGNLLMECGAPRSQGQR
Protocol: as §1

[8] = test system: T8, Rep nickase domain of tomato golden mosaic virus
T8 sequence (Rep 1-124, printed without the tag): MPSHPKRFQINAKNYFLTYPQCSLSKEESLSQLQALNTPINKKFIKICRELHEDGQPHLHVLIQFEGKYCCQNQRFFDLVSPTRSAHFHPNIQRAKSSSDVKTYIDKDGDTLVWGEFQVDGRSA
Protocol: as §1

[9] = test system: T9, Rep nickase domain of tomato yellow leaf curl virus
T9 sequence (Rep 1-136, printed without the tag): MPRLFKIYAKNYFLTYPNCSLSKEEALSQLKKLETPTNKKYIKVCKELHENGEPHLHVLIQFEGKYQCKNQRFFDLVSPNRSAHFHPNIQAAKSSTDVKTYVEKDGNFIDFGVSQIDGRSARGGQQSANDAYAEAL
Protocol: as §1

[10] = test system: T10, Rep nickase domain of wheat dwarf virus
T10 sequence (Rep 1-137, printed without the tag): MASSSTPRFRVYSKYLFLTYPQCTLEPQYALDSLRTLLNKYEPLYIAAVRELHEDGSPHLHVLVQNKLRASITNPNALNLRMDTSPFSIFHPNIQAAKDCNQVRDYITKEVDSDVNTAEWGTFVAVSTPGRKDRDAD
Protocol: as §1

Sequence	uncleaved DNA left (log2) [1]	uncleaved DNA left (log2) [2]	uncleaved DNA left (log2) [3]	uncleaved DNA left (log2) [4]	uncleaved DNA left (log2) [5]	uncleaved DNA left (log2) [6]	uncleaved DNA left (log2) [7]	uncleaved DNA left (log2) [8]	uncleaved DNA left (log2) [9]	uncleaved DNA left (log2) [10]
AGTGTTC	0.00159	-0.0702	0.0843	-0.868	-0.152	0.194	-0.228	-0.00931	-0.109	-0.0595
GTGGTCG	0.2	-0.00541	-0.254	0.0517	0.0807	-0.334	0.22	0.122	0.121	0.0757
GGTCTCC	0.0356	0.0514	-0.116	0.0367	0.0455	0.83	0.0953	-0.0686	0.0773	-0.00577
CTCCGGA	0.0112	0.00638	0.198	0.453	-0.0778	0.428	0.141	0.0156	0.000869	-0.016
ACGTTAC	0.0623	0.0621	-0.332	-1.63	-0.0136	-0.773	0.194	0.064	-0.0552	-0.0771
CTCCCCC	-0.141	-0.135	0.146	-0.0727	-0.0223	-0.00185	-0.263	-0.121	-0.0744	0.0611
GTGTGAT	-0.0807	-0.042	0.229	0.931	-0.111	1.66	-0.875	0.0653	-0.0629	0.0494
CTCTCGA	-0.153	-0.0616	-0.468	-0.896	-0.000189	-1.15	0.00989	0.0166	0.0024	-0.113
GACCGCT	-0.00521	0.0052	-0.19	-0.984	-0.00709	-0.296	-0.0578	0.0771	0.0369	-0.0625
CGTCATG	-0.0811	-0.0738	-0.22	0.0312	0.0387	0.022	-0.0371	-0.103	-0.1	0.0337
TCGAGAA	0.0934	0.0336	0.439	0.53	0.139	0.2	-0.434	0.0269	0.0263	0.0523
TTCTCAT	-0.0972	-0.13	-0.00703	-0.632	-0.16	-0.199	-0.69	-0.159	-0.0892	-0.0417
GCGGAAA	-0.0382	0.123	0.49	1.33	0.0332	1.48	0.0929	-0.0671	-0.0223	-0.0112
TTTTACG	0.00428	0.0781	-0.869	-1.04	0.13	-1.07	0.123	-0.0494	0.00433	-0.024
AAAGTTT	0.157	-0.0334	-2.4	-2.43	0.111	-0.0741	-0.944	-0.181	0.0981	-0.64
TCCCTTG	-0.224	-0.143	-0.435	-1.18	-0.325	-1.26	0.107	-0.117	-0.0915	-0.0912
CCTTATA	-0.03	0.0548	0.0567	-1.38	-0.137	-0.588	-0.0622	0.111	0.103	0.0443
TCCAAAT	0.00432	0.0738	-0.00071	-0.376	-0.147	-0.252	-0.197	-0.00433	0.0631	0.00608
ACTTATC	-0.083	-0.0567	0.0558	0.206	-0.123	-0.61	0.103	-0.13	0.0538	0.0547
CTATGGT	-0.401	-0.0565	-0.33	-0.154	-0.0745	0.424	-0.968	-0.128	-0.0133	-0.0314
AACACAC	-0.0146	0.00409	-0.14	-0.505	0.065	-0.834	0.1	-0.0399	-0.0922	0.0209

Sequence	uncleaved DNA left (log2) [1]	uncleaved DNA left (log2) [2]	uncleaved DNA left (log2) [3]	uncleaved DNA left (log2) [4]	uncleaved DNA left (log2) [5]	uncleaved DNA left (log2) [6]	uncleaved DNA left (log2) [7]	uncleaved DNA left (log2) [8]	uncleaved DNA left (log2) [9]	uncleaved DNA left (log2) [10]
GTCGGGC	0.0265	0.0414	0.481	0.961	-0.0507	1.57	0.082	–	0.0369	0.0207
GGTTTGC	-0.0747	-0.125	-0.284	-0.0845	-0.159	-0.504	0.00255	–	-0.0298	-0.137
CGTTAGG	0.108	0.0301	0.0554	0.736	0.0282	0.368	0.155	–	-0.0789	0.11
AGATCTT	-2.56	-0.0867	0.361	-0.396	-0.0195	1.1	-2.9	–	0.00767	-0.136
TGGCCTC	-0.118	0.0778	0.263	0.623	0.0654	1.2	0.0504	–	-0.0397	0.0162
GTGGCAG	0.116	0.116	0.77	1.75	-0.0131	2.03	0.124	–	-0.0465	0.103
CTCGTGC	-0.17	-0.113	-0.614	-0.741	-0.0976	-1.1	0.058	–	0.00667	-0.0468
ACATTAA	-0.0872	-0.0692	-0.256	-0.332	-0.106	-0.815	0.0755	–	-0.109	-0.0229
TACACAA	0.0653	0.0331	-0.109	-0.999	-0.0534	-0.679	0.0384	–	0.00992	0.0607
CTTCTGT	-0.000254	-0.0689	-0.111	-0.585	-0.0918	-0.682	-0.0806	–	-0.0639	-0.0809
TTTGCTG	0.118	0.107	-0.0893	-0.0188	0.0924	-0.358	0.178	–	0.0839	0.0853
CGGTTGT	0.0544	-0.00509	-0.0444	0.391	-0.0397	0.846	-0.187	–	-0.0403	0.0554
ATCTTAA	0.0623	0.0948	-0.0538	-0.252	0.146	-0.576	-0.0928	–	0.0677	-0.00554
TAAGGCA	0.0645	0.0642	-0.161	-0.724	0.0256	0.092	0.038	–	0.046	-0.027
GTCTAAT	-0.218	-0.0015	0.373	0.852	-0.068	1.61	-1.44	–	-0.0621	0.112
AAGGAAA	0.0925	0.0863	0.257	1.14	0.0565	1.22	0.211	–	-0.0715	0.134
AACTGAC	-0.00545	0.0474	-0.202	0.419	0.0525	0.161	0.104	–	-0.0151	-0.00745
AGACTGG	0.185	0.0524	0.128	0.702	-0.0422	0.932	0.163	–	-0.0653	0.0887
CAAAGTG	0.0126	0.029	-0.704	-0.988	0.0531	-1.17	0.152	–	0.0359	-0.0221
GGTAGGT	0.071	0.106	0.621	1.28	0.0052	1.85	0.158	–	0.0504	0.192
GTTGGGG	-0.0323	-0.0874	0.137	0.389	-0.048	-0.0727	0.1	–	-0.0532	-0.00141

Sequence	uncleaved DNA left (log2) [1]	uncleaved DNA left (log2) [2]	uncleaved DNA left (log2) [3]	uncleaved DNA left (log2) [4]	uncleaved DNA left (log2) [5]	uncleaved DNA left (log2) [6]	uncleaved DNA left (log2) [7]	uncleaved DNA left (log2) [8]	uncleaved DNA left (log2) [9]	uncleaved DNA left (log2) [10]
ACAATGA	-0.0127	0.0727	-0.264	-0.134	-0.0264	-0.885	0.0753	–	-0.0565	-0.0993
GGTCCTG	-0.143	-0.0885	0.0457	0.693	-0.0685	1.21	0.0154	–	0.0273	-0.0263
ATTTATG	0.0119	-0.0732	-0.572	-0.671	0.0165	-1.05	0.0456	–	-0.0407	-0.0154
AATTGAA	-0.818	-0.198	-0.396	-0.727	0.126	-1.13	-2.57	–	0.0673	-0.000853
CGCCGTC	2.15e-05	-0.0687	-0.00202	-0.156	-0.175	-0.274	-0.0999	–	0.0515	-0.0837
AACTCAG	0.00161	0.0228	-0.62	-0.624	0.0586	-1.14	0.129	–	-0.079	-0.0262
GCCTATA	0.0498	-0.0314	0.146	-0.144	-0.102	0.319	0.0532	–	0.0995	0.0337
CAAATAG	0.0709	-0.0361	-0.704	-0.442	0.0509	-1.02	0.231	–	0.0534	0.00736
AACTAAG	0.0162	0.0111	-0.699	-0.357	0.191	-1.12	0.193	–	0.123	-0.0603
AAACCAA	-0.0169	-0.0434	-0.000338	-1.11	-0.0725	-0.615	-0.453	–	-0.0497	-0.0738
GATGCGA	0.0717	-0.142	-0.697	0.258	-0.00445	-0.645	0.103	–	0.00737	-0.0923
CCAAATG	-0.0769	-0.114	0.0274	0.414	-0.0211	-0.31	0.0911	–	-0.123	-0.185
TACAGTA	-0.104	-0.0677	-0.299	-2.31	-0.101	-0.645	-0.333	–	-0.105	-0.108
CCTCGGT	-0.0289	-0.043	0.293	0.811	0.047	1.15	0.116	–	-0.0376	-0.0679
ACTAAAA	-0.0324	0.116	-0.0822	-0.0335	0.0323	-0.562	0.147	–	-0.0441	0.0291
AGTCGGG	0.00249	-0.157	-0.224	-0.137	0.0104	-0.54	0.0331	–	-0.145	-0.18
TTGGCGA	-0.0409	-0.167	-0.75	-0.181	-0.0466	-0.8	0.0936	–	-0.116	-0.227
TTGTAAT	-2.95	-0.72	0.2	-0.887	-1.1	-0.272	-3.12	–	0.191	0.124
GTCCCTG	0.0414	0.0371	0.195	0.816	-0.0601	1.68	0.126	–	-0.0384	0.00176
AAAGATC	0.0592	0.0663	0.18	0.26	0.0932	0.532	0.219	–	0.0264	0.118
